The source of these data is ChEMBL document CHEMBL4888484, “Replenishing the malaria drug discovery pipeline: Screening and hit evaluation of the MMV Hit Generation Library 1 (HGL1) against asexual blood stage Plasmodium falciparum ,using a nano luciferase reporter read-out” (2022).

Screen size: about 150,000 compounds; about 540 (0.36%) showed an effect of 50% or more. The list shows a part of the results.

The subject of this test is Plasmodium falciparum. The test can be described thus: Primary screen in NF54 nanoGlo assay, in single point, at 2uM, 72h; a lower Z score goes with more inhibition. In kind it is functional, Erythrocyte. The conditions noted are these: timepoint 72 hour.
One may read the % Inhibition as the change of the read-out against control, counted positive when it falls. Take `Cc1ccc(C2(c3ccc(C)cc3)C(=O)Nc3ncccc32)cc1`: the “% Inhibition” value amounted to 3% and the Z score is -0.37.
`COc1ccccc1CN1C(=O)O[C@H]2CN(c3nc4ccccc4o3)C[C@H]21`: the “% Inhibition” value is listed as -3% and the Z score is reported as 0.45.
The like results for `CCOc1cc(N2CCOCC2)c(OCC)cc1NC(=O)c1cc(C)c(C)s1` were, in that order, -16% and 2.07.
The like results for `O=C(c1ncc(F)cc1F)N1CCCC[C@@H]1CCc1ccccc1` were, in that order, -14% and 1.94.
On the same counts, the results for `O=C(NC1CCCCC1)C(=O)N1CCCC1` are -11% and 1.38.
Consider `O=C(NCc1ccncc1)Nc1cc(-c2ccccc2)on1`, for which the “% Inhibition” value is reported as -8% and the Z score is reported as 1.26.
On the same counts, the results for `CN(C(=O)C1CC=CC1)C1CCN(C(=O)OC(C)(C)C)CC1` are -1% and 0.1.
On the same counts, the results for `C[C@@]12CN(Cc3ccccc3)C[C@@H]1CN(C(=O)COC1CCCC1)C2` are 6% and -0.85.
Take `O=C(Nc1nnc[nH]1)[C@@H]1COc2ccccc2O1`: the “% Inhibition” value is given as -12% and the Z score came to 1.1.
On the same counts, the results for `O=C(Nc1cccc2nonc12)c1ccco1` are -8% and 1.13.
Take `N#Cc1c(NC(=O)CN2CCCCCC2)sc2c1CCCCC2`: the “% Inhibition” value is recorded as -6% and the Z score is 0.73.
On the same counts, the results for `O=C(c1cccc2ccccc12)N1C[C@@H]2CC[C@H]1CN(Cc1ccccn1)C2` are 15% and -1.89.
On the same counts, the results for `Cc1cc(C(=O)N2CCOC3(CCS(=O)(=O)CC3)C2)c(C)s1` are -13% and 1.28.
On the same counts, the results for `CO[C@H]1CCC[C@@H]1Nc1ccnc(N[C@H]2CCC[C@@H]2OC)n1` are 23% and -2.91.
In the case of `O=C1CCCCCN1CCC(=O)N(Cc1ccc(-c2ccccc2)cc1)C[C@H]1CCCO1`, the “% Inhibition” value is on record as -24% and the Z score is 2.38.
On the same counts, the results for `O=C1c2c(nc3ccccc3c2-c2ccccc2)CN1c1ccccc1` are -35% and 4.16.
With `CN(CCn1cnnc1)C(=O)Nc1cccc(C#Cc2ccccc2)c1`, the “% Inhibition” value was 2% and the Z score is given as -0.3.
As for `CCC(CC)N(CCOC)C(=O)Nc1ccc(C)c(NC(=O)N(CCOC)C(CC)CC)c1`, the “% Inhibition” value is listed as 14% and the Z score was -1.49.
The like results for `Cn1nnc2c(N3CC(Cc4cccc(C(F)(F)F)c4)C3)ncnc21` were, in that order, -3% and 0.56.
The like results for `Cc1cccc(-c2nc(CN3C[C@H]4CC[C@@H](C3)N(Cc3cscn3)C4=O)c(C)o2)c1` were, in that order, -9% and 0.82.
On the same counts, the results for `CCCC(=O)Nc1nnc(-c2cc3cccc(OC)c3o2)o1` are -16% and 1.84.
With `Cc1nc(CNC(=O)c2cccc(S(=O)(=O)N3CC[C@@H](O)C3)c2)cs1`, the “% Inhibition” value came to 0% and the Z score is on record as -0.06.
On the same counts, the results for `Cc1ccc(N2C[C@@H](C(=O)N3CCC(c4c[nH]c5ccccc45)(c4c[nH]c5ccccc45)CC3)CC2=O)c(C)c1` are 1% and -0.17.
Turning to `COc1ccc(CC(=O)Nc2c(C(=O)N3CCC(N4CCCCC4)CC3)oc3ccccc23)cc1`, the “% Inhibition” value is -7% and the Z score amounted to 0.73.
For `COc1cccc([C@H]2CCN(c3ncnc4c3CCNC4)C2)c1OC`, the “% Inhibition” value is on record as -19% and the Z score is 1.88.
The like results for `Cc1cccc(CN(Cc2nc(C(=O)NCc3ccccc3)co2)C(C)C)c1` were, in that order, -7% and 0.98.
The like results for `CC(C)(CNC(=O)N1CCCCC[C@H]1c1cccc(F)c1)N1CCOCC1` were, in that order, 8% and -0.96.
On the same counts, the results for `COCCN(C)CC(=O)N1CC[C@@]2(CCCN(CC3CCC3)C2=O)C1` are -5% and 1.09.
`Cc1[nH]nc(O)c1[C@H](CC(N)=O)C1=Cc2ccccc2OC1`: the “% Inhibition” value came to 26% and the Z score is listed as -2.97.
The like results for `C=C(C)CN1CCC(N[C@@H](C)c2ccnc(C)n2)CC1` were, in that order, -3% and 0.35.
The like results for `Cc1c(Cl)cccc1S(=O)(=O)N1[C@H]2CCNC[C@@H]1CC2` were, in that order, -2% and 0.3.
The like results for `CCc1nc(C(C)C)ccc1C(=O)NCCc1cc(C)no1` were, in that order, -4% and 0.72.
`O=C(NC1CCCCC1)N1CCC[C@H]1c1nc(CCOCC2CC2)no1`: the “% Inhibition” value is given as -1% and the Z score is given as 0.27.
On the same counts, the results for `Cc1ccc(-c2cc3c(=O)[nH]ccn3n2)cc1C` are -11% and 1.08.
In the case of `O=C(COc1ccccc1Cl)N1CCC[C@H]1c1nc2ccccc2s1`, the “% Inhibition” value is -10% and the Z score stood at 1.96.
On the same counts, the results for `CN1OCC(S(=O)(=O)N2CCN(Cc3ccccc3)CC2)C1c1cc(F)ccc1F` (stereo unspecified) are 0% and -0.05.
Turning to `O=C(CCc1cc2n(n1)CCN(C(=O)[C@@H](O)c1ccccc1)C2)NCCO`, the “% Inhibition” value is reported as -11% and the Z score came out at 1.37.
The like results for `Cn1ccnc1[C@H]1CCN(S(=O)(=O)CCC2CCCC2)C1` were, in that order, -8% and 0.92.
Turning to `CC1CCCC(NC(=O)c2ccc(CN3C(=O)CCn4nccc43)cc2)C1C` (stereo unspecified), the “% Inhibition” value is -3% and the Z score is 0.52.
On the same counts, the results for `Cc1nc(C)c(F)c(N(C)CCc2ncccn2)n1` are -14% and 3.05.
The like results for `Cc1cnc(C(=O)N[C@H]2CCCN(c3ccc(C#N)cc3F)C2)cn1` were, in that order, 4% and -0.67.
The like results for `CCN(Cc1nc(-c2ccccc2)cs1)CC1CCN(C2CCN(C)CC2)CC1` were, in that order, 13% and -1.74.
As for `C1CCc2nnc([C@H]3CC34CCN(Cc3nc(C5CC5)no3)CC4)n2CC1`, the “% Inhibition” value is recorded as -17% and the Z score stood at 2.67.
The like results for `COc1ccc(CNC(=O)CCn2nnc3cc(S(=O)(=O)N4CCCC4)ccc32)cc1` were, in that order, -18% and 1.78.
On the same counts, the results for `CC(C)C(=O)N1CC(C)(C)c2cc(S(=O)(=O)NC3CCCC3)ccc21` are -4% and 0.53.
On the same counts, the results for `CCC(=O)[C@@H]1CCCCN1C(=O)Cc1ccc(C)nc1` are -8% and 1.19.
With `Cc1nc2c(s1)CCC[C@@H]2Nc1nccnc1C#N`, the “% Inhibition” value was -3% and the Z score is given as 0.45.
The like results for `CC(C)CC[C@@]1(C2CC2)NC(=O)N(Cc2ccc(C#N)cn2)C1=O` were, in that order, -14% and 2.83.
On the same counts, the results for `Cc1c(C2CCN(C(=O)c3ccccc3Br)CC2)noc1N` are -1% and 0.22.
With `C#CC(C)NC(=O)c1cn(CC2CCCN2C(=O)OC(C)(C)C)nn1` (stereo unspecified), the “% Inhibition” value is recorded as 0% and the Z score is given as -0.01.
On the same counts, the results for `COC(=O)c1cnc(NC(=O)c2ccnn2CC(C)C)c(O)c1` are -7% and 0.87.
On the same counts, the results for `O=C(NC1CCCCC1)[C@@H]1Cc2[nH]cnc2CN1Cc1cc2ccccc2o1` are 1% and -0.12.
On the same counts, the results for `CC(=O)Nc1ccc(NC(C)(C)C)cc1` are -40% and 4.72.
